PMC7337490
Positions count from the first letter of the chain named. Results are given in words; binding and its absence hold for the method and conditions named. For some of these results: In cells and extracts the contact can be indirect. Some results given as binding are weak or reduced against the parent protein; the word gives no strength. For some of these results: Sequences can lack the tags named with a protein. Each block holds one substance with its values, some of them ahead of it.

Chains of the proteins cited; added tags and fusions are not shown. Lines headed by an entry give the natural chain unless they say otherwise; changes in a name come on top. A line that says so, or that is headed by a name, gives the form on record, which may keep a tag or linker. Residues count along the entry.
UniProt O95235: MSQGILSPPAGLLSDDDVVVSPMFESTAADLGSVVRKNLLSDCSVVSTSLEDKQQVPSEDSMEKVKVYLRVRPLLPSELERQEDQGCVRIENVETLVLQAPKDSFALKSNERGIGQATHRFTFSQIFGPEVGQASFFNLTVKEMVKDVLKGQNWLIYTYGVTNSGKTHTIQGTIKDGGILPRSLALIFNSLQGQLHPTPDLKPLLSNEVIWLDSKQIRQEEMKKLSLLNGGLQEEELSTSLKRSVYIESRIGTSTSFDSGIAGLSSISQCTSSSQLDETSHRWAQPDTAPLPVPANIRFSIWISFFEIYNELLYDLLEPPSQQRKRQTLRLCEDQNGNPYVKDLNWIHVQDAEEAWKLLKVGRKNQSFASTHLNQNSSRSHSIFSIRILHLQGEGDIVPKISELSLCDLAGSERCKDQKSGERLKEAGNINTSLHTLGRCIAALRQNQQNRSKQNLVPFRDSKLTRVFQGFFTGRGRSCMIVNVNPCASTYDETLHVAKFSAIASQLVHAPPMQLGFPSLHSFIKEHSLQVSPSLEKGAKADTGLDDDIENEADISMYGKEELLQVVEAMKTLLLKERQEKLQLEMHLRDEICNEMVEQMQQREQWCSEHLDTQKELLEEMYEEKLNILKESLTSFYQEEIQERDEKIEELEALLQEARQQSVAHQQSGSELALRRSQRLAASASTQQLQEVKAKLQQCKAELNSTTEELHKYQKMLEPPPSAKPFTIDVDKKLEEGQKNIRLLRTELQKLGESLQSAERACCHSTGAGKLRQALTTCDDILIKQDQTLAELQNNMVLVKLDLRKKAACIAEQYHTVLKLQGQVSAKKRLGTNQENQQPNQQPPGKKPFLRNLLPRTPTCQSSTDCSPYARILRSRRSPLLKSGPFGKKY
GFP-MKLP2^535-718: residues 535-718 of O95235
MKLP2^557-668: residues 557-668 of O95235
GFP-MKLP2 RRSQR (penta-alanine substitution) mutant (O95235, form named): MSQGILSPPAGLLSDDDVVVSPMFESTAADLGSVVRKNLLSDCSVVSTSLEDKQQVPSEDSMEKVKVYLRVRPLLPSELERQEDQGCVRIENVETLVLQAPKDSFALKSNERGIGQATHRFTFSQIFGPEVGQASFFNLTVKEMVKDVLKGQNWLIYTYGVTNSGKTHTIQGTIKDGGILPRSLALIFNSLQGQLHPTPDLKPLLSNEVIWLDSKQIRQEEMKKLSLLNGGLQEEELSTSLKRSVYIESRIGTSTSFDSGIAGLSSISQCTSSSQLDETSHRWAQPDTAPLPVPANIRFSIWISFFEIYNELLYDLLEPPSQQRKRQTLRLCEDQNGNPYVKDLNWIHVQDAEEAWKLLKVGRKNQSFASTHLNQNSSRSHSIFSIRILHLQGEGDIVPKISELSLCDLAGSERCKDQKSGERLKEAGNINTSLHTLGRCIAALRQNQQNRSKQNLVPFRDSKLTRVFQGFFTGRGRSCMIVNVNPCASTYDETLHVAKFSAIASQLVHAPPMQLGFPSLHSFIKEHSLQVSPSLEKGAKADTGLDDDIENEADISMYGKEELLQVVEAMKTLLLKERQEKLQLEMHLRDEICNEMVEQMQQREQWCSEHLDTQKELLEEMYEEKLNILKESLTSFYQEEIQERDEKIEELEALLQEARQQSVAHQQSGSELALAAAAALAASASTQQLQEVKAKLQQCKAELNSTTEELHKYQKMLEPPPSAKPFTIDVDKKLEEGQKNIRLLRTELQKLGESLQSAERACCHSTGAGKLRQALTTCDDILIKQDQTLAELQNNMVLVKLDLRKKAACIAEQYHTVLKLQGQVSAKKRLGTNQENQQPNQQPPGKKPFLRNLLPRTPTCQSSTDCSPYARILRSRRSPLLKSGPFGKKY
GFP-MKLP2 Δ636-652 (O95235, form named): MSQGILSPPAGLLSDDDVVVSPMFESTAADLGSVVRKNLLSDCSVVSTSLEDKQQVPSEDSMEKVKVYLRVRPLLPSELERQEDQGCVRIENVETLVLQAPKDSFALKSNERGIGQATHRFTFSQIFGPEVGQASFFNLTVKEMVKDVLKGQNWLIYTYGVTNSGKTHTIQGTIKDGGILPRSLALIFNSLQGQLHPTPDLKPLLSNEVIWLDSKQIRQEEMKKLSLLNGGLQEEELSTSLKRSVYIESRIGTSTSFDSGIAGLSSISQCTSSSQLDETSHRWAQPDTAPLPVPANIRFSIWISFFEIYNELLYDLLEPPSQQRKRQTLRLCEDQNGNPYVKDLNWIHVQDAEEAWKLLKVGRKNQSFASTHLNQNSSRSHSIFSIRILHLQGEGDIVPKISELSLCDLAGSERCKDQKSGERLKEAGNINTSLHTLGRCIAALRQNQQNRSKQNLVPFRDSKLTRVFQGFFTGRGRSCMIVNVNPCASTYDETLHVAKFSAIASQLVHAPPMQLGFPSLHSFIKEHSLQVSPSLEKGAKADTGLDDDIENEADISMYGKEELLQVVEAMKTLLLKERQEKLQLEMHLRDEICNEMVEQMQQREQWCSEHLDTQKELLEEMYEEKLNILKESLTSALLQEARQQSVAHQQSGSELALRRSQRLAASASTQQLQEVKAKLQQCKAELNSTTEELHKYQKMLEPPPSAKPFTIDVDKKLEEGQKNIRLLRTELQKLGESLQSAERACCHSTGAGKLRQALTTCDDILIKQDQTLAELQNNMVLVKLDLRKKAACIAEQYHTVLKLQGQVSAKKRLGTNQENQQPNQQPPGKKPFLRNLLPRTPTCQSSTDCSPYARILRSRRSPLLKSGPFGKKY
GFP-MKLP2 Δ690-705 (O95235, form named): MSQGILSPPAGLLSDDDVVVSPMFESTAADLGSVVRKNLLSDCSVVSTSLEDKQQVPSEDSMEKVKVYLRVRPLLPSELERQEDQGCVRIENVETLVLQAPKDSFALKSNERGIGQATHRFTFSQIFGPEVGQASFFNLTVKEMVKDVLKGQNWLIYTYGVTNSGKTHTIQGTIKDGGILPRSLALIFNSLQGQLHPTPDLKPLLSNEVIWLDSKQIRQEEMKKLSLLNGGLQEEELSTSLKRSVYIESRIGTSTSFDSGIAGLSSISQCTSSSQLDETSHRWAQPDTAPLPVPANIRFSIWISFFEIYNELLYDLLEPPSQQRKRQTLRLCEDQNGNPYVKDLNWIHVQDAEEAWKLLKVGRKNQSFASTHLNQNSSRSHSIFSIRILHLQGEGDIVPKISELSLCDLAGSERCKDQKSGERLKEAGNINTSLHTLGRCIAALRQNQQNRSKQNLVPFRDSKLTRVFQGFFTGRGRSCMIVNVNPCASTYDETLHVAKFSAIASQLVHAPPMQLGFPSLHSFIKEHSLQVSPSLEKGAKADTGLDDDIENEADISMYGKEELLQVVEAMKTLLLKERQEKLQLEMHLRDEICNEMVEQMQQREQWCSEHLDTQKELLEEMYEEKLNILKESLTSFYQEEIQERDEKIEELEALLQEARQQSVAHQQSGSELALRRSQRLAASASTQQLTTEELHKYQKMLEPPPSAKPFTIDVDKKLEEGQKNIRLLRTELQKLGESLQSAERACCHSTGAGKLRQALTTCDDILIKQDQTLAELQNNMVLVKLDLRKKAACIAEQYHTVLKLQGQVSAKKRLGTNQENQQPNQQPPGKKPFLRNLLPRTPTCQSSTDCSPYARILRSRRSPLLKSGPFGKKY
UniProt O15392: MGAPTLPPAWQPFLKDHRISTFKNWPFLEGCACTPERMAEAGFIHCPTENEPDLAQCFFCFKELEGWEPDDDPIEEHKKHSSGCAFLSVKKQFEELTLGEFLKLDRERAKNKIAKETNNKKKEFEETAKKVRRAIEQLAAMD
UniProt Q96GD4: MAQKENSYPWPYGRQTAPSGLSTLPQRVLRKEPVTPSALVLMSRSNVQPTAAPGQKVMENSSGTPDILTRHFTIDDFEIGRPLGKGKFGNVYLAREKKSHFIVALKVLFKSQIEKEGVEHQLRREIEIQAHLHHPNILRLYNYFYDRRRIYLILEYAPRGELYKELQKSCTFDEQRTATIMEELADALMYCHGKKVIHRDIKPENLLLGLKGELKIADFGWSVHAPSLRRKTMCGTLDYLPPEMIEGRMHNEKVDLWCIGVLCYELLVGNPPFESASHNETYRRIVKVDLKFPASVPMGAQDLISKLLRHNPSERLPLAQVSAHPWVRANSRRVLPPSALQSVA

What was measured:
MKLP2^557-668 (human) = MKLP2^557-668 (human) (UniProt O95235); test: SEC; CPC variants and MKLP2^557-668 mixed 1:1, 30 min on ice in 100 mM NaCl, 20 mM Tris-HCl pH 8.0, 1 mM DTT, 10% glycerol; analytical Superdex 200 increase 10/300 at 4°C; fractions on stained gels; both purified
[1] = target: Full-length GFP-INCENP (WT) (human) (UniProt Q9NQS7); test: co-IP; anti-GFP IP of GFP-INCENP constructs from transfected HeLa cells, nocodazole arrest, collected 0 and 30 min after MPS1 inhibitor AZ3146 (metaphase, anaphase); Benzonase-treated lysate; Western blot
GFP-INCENP 1–80 (human) = target: T1, GFP-INCENP 1–80 (human) (UniProt Q9NQS7); test: as above
T1 sequence: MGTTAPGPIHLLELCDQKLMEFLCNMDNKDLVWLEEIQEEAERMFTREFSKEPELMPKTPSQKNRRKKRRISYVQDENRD

[2] = target: T2, GFP-INCENP 1–80 RRKKRR (RRKKRR to hexa-alanine mutant) (human) (UniProt Q9NQS7); test: as above
T2 sequence: T1 sequence with R65A, R66A, K67A, K68A, R69A, R70A

GFP-INCENP T59E (human) = GFP-INCENP T59E (human) (UniProt Q9NQS7); test: as above
[3] = target: GFP-MKLP2^535-718 (human) (UniProt O95235); test: co-IP; GFP IP from HeLa T-REx GFP-MKLP2^535-718 cells, doxycycline 18 h, nocodazole 18 h, forced into anaphase with 5 µM flavopiridol; Western blot
[4] = target: GFP-MKLP2 RRSQR (penta-alanine substitution) mutant (human) (UniProt O95235); test: co-IP; anti-GFP IP of GFP-MKLP2 constructs from transfected HeLa cells, nocodazole arrest, collected 0, 20 and 30 min after MPS1 inhibitor AZ3146; Western blot
GFP-MKLP2 WT (human) = GFP-MKLP2 WT (human) (UniProt O95235); test: as above
[5] = target: GFP-MKLP2 Δ636-652 (human) (UniProt O95235); test: as above
[6] = target: GFP-MKLP2 Δ690-705 (human) (UniProt O95235); test: as above

binding (MKLP2^557-668 (human)): no binding
Substance: CPI80^RRKKRR (CPI80 with the INCENP RRKKRR-motif replaced with alanine residues) (from UniProt O15392 1-142; Q9NQS7 1-80; Q53HL2 10-109) (complex)

binding [1]: binds | binding (GFP-INCENP 1–80 (human)): binds | binding [2]: no binding | binding (GFP-INCENP T59E (human)): no binding
Substance: MKLP2 (endogenous) (from UniProt O95235 1-890)

binding [3]: binds | binding [4]: binds | binding (GFP-MKLP2 WT (human)): binds | binding [5]: no binding | binding [6]: binds
Substance: chromosomal passenger complex (CPC), endogenous (from UniProt Q96GD4 1-344; Q9NQS7 1-918; O15392 1-142; Q53HL2 1-280)
